{"source": "PubChem BioAssay AID445", "about": "(National Center for Advancing Translational Sciences (NCATS), 2006)", "note": "In all, about 110,000 compounds went through this assay and about 40 (0.04%) were called active. Inconclusive results, whose numbers are uncertain, are shown with a selection of clear calls. The call rests on the fitted dose curve; in most records, active means well fitted curve in the direction sought with a large enough effect in the signal ratio (not every such curve was filed as active); inconclusive means small, poorly fitted or top-dose-only effect, or a change in a side signal; inactive means flat fitted curve, though single readings scatter; the % refers to the signal ratio. A potency beside an inconclusive call is a rough fit, not a confirmed value. Potency means the concentration at half of the fitted maximal effect."}
{"assay": "IkB Signaling;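 on IkBa stabilization activation: 0% = basal untreated cells and 100% = reference inhibitor full response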", "details": "ABC-DLBCL IkBa-CBG/CBR dual luciferase ratio (green luciferase fused to IkBa over red control in OCI-Ly3 lymphoma cells), 4 h; IkBa stabilization activation: at 57.1 µM (top of the series), scaled: untreated 0%, proteasome inhibitor 100% unless noted", "how_it_was_run": "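In this assay, an IκBα–CBG68 fusion accumulates when IKK-driven degradation is blocked; native CBR normalizes for cell number. OCI-Ly3 cells were treated 4 h with compound and doxycycline, then green and red light read after Chroma-Glo addition.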"}
{"molecule": "Cc1cc(-c2ccc(S(=O)(=O)Nc3cccc(C(F)(F)F)c3)s2)on1", "IkBa stabilization activation": "inconclusive: 12.4% [signal inhibitor]"}
{"molecule": "CC(C)Sc1ncc(Cl)c(C(=O)Nc2nc3ccc(S(C)(=O)=O)cc3s2)n1", "IkBa stabilization activation": "inconclusive: 0.372% [signal inhibitor]"}
{"molecule": "O=C(c1ccccc1Cl)N1CCCC(c2nc3c(nnn3Cc3ccc(F)cc3F)c(=O)[nH]2)C1", "note": "(centres undefined)", "IkBa stabilization activation": "inactive"}
{"molecule": "CN(C(=O)CSc1nc2ccc(NC(=O)COc3ccc(F)cc3)cc2s1)c1ccccc1", "IkBa stabilization activation": "inconclusive: 0.46% [signal inhibitor]"}
{"molecule": "CC(C)c1ccc2c(c1)CC[C@H]1[C@@](C)(CN)CCC[C@@]21C", "IkBa stabilization activation": "inactive: 1.47% [at 11.4 µM, scaled: untreated 0%, proteasome inhibitor 100%]"}
{"molecule": "Cc1cc(C(=O)CSc2nc3ccccc3n2CCC#N)c(C)n1Cc1cccs1", "IkBa stabilization activation": "inconclusive: 0.906% [signal inhibitor]"}
{"molecule": "CCN(CC(=O)Nc1ccc2c(c1)OCO2)Cc1nc2ccccc2c(=O)[nH]1", "IkBa stabilization activation": "inconclusive: -0.651% [signal inhibitor]"}
{"molecule": "O=C(Nc1ccc2nc(-c3ccc(Br)o3)[nH]c2c1)c1ccco1", "IkBa stabilization activation": "inconclusive: 4.8% [signal inhibitor]"}
{"molecule": "CC(=O)N1CCc2c(sc(NC(=O)C3CC3)c2-c2nc3ccccc3s2)C1", "Potency": "inconclusive: 15.8 µM [signal inhibitor, partial curve]"}
{"molecule": "CC(=O)N1CCN(C(=O)C(=O)Nc2c3c(nn2-c2ccc(Cl)cc2)CSC3)CC1", "IkBa stabilization activation": "inactive"}
{"molecule": "COc1ccc2[nH]cc(CCNc3ccnc(-c4ccccc4C(F)(F)F)n3)c2c1", "IkBa stabilization activation": "inactive: 2.98% [at 11.4 µM, scaled: untreated 0%, proteasome inhibitor 100%]"}
{"molecule": "CCNc1ncc2nc(-c3ccc(OC)cc3)c(=O)n(CCC#N)c2n1", "IkBa stabilization activation": "inactive: 0.547% [at 11.4 µM, scaled: untreated 0%, proteasome inhibitor 100%]"}
{"molecule": "CCOc1ccc2c(c1)c(=O)c(S(=O)(=O)c1ccc(CC)cc1)cn2CC", "IkBa stabilization activation": "inconclusive: 3.76% [signal inhibitor]"}
{"molecule": "CCn1c(SCC(=O)c2ccc(C)cc2)nnc1-c1ccoc1C", "IkBa stabilization activation": "inconclusive: 4.64% [signal activator]"}
{"molecule": "CCOc1ccccc1-c1noc(CSc2nnc(-c3ccncc3)n2-c2ccc(F)cc2)n1", "IkBa stabilization activation": "inconclusive: 0.499% [signal inhibitor]"}
{"molecule": "COc1cccc(C(=O)N2CCSC2=S)c1", "IkBa stabilization activation": "inconclusive: 9.96% [signal inhibitor]"}
{"molecule": "Cn1c(=O)n(Cc2ccccc2Cl)c(=O)c2c1nc1n2CCN1c1ccccc1", "IkBa stabilization activation": "inconclusive: 0.565% [signal inhibitor]"}
{"molecule": "NC(=O)C[C@@H](N)c1nn[nH]n1", "IkBa stabilization activation": "inactive: -0.857% [at 11.4 µM, scaled: untreated 0%, proteasome inhibitor 100%]"}
{"molecule": "Cc1c(Cl)cccc1NC(=O)CSc1nc(=O)n(Cc2ccncc2)c2c1CCC2", "IkBa stabilization activation": "inconclusive: 1.44% [signal inhibitor]"}
{"molecule": "Cc1ccc(C(=O)COC(=O)CCCC(=O)Nc2cc(C(F)(F)F)ccc2Cl)cc1C", "IkBa stabilization activation": "inconclusive: 5.06% [signal inhibitor]"}
{"molecule": "COc1ccc(C(=O)NCc2ccc3c(c2)CCN3C(C)=O)cc1OC", "IkBa stabilization activation": "inactive"}
{"molecule": "Cc1oc(-c2ccc(C(=O)NCCCOC(C)C)cc2)nc1CS(=O)(=O)c1ccccc1", "IkBa stabilization activation": "inconclusive: -1.67% [signal inhibitor]"}
{"molecule": "CC(=O)NCCn1c(C)cc2ccccc21", "IkBa stabilization activation": "inactive"}
{"molecule": "CCn1c2ccccc2c2nnc(SCC(=O)NCCOC)nc21", "IkBa stabilization activation": "inactive"}
{"molecule": "COc1ccccc1N(CC(=O)NC1CCCC1)C(=O)CCC(=O)Nc1cc(C)on1", "Potency": "inconclusive: 10 µM [signal inhibitor, partial curve]"}
{"molecule": "O=C(Nc1cccc(F)c1)N1CCC2(CC1)CCN(C(=O)c1cc(C(F)(F)F)cc(C(F)(F)F)c1)CC2", "IkBa stabilization activation": "inactive: 3.25% [at 11.4 µM, scaled: untreated 0%, proteasome inhibitor 100%]"}
{"molecule": "COC(=O)c1sc(NC(=O)c2ccc(Cn3cc(Cl)cn3)o2)c(C#N)c1C", "IkBa stabilization activation": "inconclusive: 6.4% [signal inhibitor]"}
{"molecule": "CC(C)c1noc(-c2ccccc2OCC(=O)Nc2ccccc2[N+](=O)[O-])n1", "IkBa stabilization activation": "inconclusive: 1.51% [signal inhibitor]"}
{"molecule": "COc1cccc(-n2c(SCc3c(C)noc3C)nnc2-c2cccc(S(=O)(=O)N(C)C)c2)c1", "IkBa stabilization activation": "inactive"}
{"molecule": "Cc1cc(Nc2ccc(Cl)cc2C)nc(-n2nc(C)cc2C)n1", "IkBa stabilization activation": "inconclusive: -0.199% [signal inhibitor]"}
{"molecule": "O=C(NCc1ccc2c(c1)CCN2C(=O)c1ccc(F)cc1)c1ccco1", "IkBa stabilization activation": "inactive"}
{"molecule": "CO/N=C(\\C(=O)N[C@@H]1C(=O)N2C(C(=O)O)=C(CSc3nc(=O)c(O)nn3C)CS[C@@H]12)c1csc(N)n1", "IkBa stabilization activation": "inactive"}
{"molecule": "Cc1c(CNC2CCCCC2)c(C(=O)O)c(C)n1Cc1ccc(F)cc1", "IkBa stabilization activation": "inactive"}
{"molecule": "CCOC(=O)Cc1c(C)nc(-c2ccccc2)[nH]c1=O", "IkBa stabilization activation": "inactive"}
{"molecule": "CCN(C(=O)c1cc2c(=O)n3cccc(C)c3nc2s1)c1ccc(C)c(C)c1", "IkBa stabilization activation": "inconclusive: 1.93% [signal inhibitor]"}
{"molecule": "C1CCC(c2nn3c(-c4n[nH]c5c4CCC5)nnc3s2)CC1", "IkBa stabilization activation": "inactive"}
{"molecule": "O=C(Nc1noc2ccccc12)c1ccc(F)cc1", "IkBa stabilization activation": "inactive"}
{"molecule": "CCOC(=O)c1ccc(NC(=O)C2(S(=O)(=O)c3ccc(Cl)cc3)CC2)cc1", "IkBa stabilization activation": "inconclusive: 0.967% [signal inhibitor]"}
{"molecule": "Cc1cccc(C)c1NS(=O)(=O)c1ccc(NS(=O)(=O)c2ccc3c(c2)OCCO3)cc1", "IkBa stabilization activation": "inconclusive: 0.34% [signal inhibitor]"}
{"molecule": "CCC(=O)c1ccc(CCCCCC(=O)O)s1", "Potency": "inconclusive: 0.794 µM [signal inhibitor, full curve]"}
{"molecule": "Fc1ccc(-c2cc(C(F)(F)F)nc(NCC3CCCO3)n2)cc1", "note": "(centres undefined)", "IkBa stabilization activation": "inactive"}
{"molecule": "Cc1ccc(C)c(N2CCN(CCCNC(=O)c3ccc4nc(N5CCCCC5)sc4c3)CC2)c1", "IkBa stabilization activation": "inconclusive: 0.427% [signal inhibitor]"}
{"molecule": "Cc1ccc(-c2nnc(Nc3ccccc3)c3ccccc23)cc1S(=O)(=O)NCc1nc2ccccc2[nH]1", "IkBa stabilization activation": "inconclusive: 12.5% [signal inhibitor]"}
{"molecule": "Cc1cccc(N2CCN(C(=O)CCS(=O)(=O)c3ccc4c(c3)oc(=O)n4C)CC2)c1C", "IkBa stabilization activation": "inconclusive: 2.26% [signal inhibitor]"}
{"molecule": "O=C(CSc1nnnn1-c1ccccc1Cl)Nc1ccc2c(c1)OCCO2", "IkBa stabilization activation": "inconclusive: 8.98% [signal inhibitor]"}
{"molecule": "Cn1c(=O)c2cc(NC(=O)c3ccccc3Cl)c(=O)oc2n(C)c1=O", "IkBa stabilization activation": "inactive"}
{"molecule": "Cc1oc2c(O)c(O)ccc2c(=O)c1-c1cnn(-c2ccccc2)c1", "IkBa stabilization activation": "inconclusive: 4.41% [signal inhibitor]"}
{"molecule": "COc1ccccc1C(=O)Nc1cccc(C(=O)OCc2cc(=O)n3nc(C)sc3n2)c1", "IkBa stabilization activation": "inconclusive: 6.64% [signal inhibitor]"}
{"molecule": "O=C(c1cc2ccc3cccnc3c2[nH]1)N1CCN(c2ccc(Cl)cc2)CC1", "IkBa stabilization activation": "inactive"}
{"molecule": "C=CCn1c(SCC(=O)c2cccs2)nc2sc(CC)cc2c1=O", "IkBa stabilization activation": "inactive"}
{"molecule": "NC(=O)CSc1ncc2c(n1)-c1ccccc1N(Cc1ccc(Cl)cc1)S2(=O)=O", "IkBa stabilization activation": "inactive"}
{"molecule": "O=C(CN1C(=O)C2(SCC(=O)N2c2ccccc2)c2ccccc21)NCc1ccccc1", "note": "(centres undefined)", "IkBa stabilization activation": "inconclusive: 3.15% [signal inhibitor]"}
{"molecule": "COCCn1c(=O)c(-c2ccccc2)nc2cnc(Nc3cccc(OC)c3)nc21", "IkBa stabilization activation": "inactive: -4.73% [at 11.4 µM, scaled: untreated 0%, proteasome inhibitor 100%]"}
{"molecule": "CCCNC(=O)C(CC)n1nc(CC)n2c(cc3oc(C)cc32)c1=O", "note": "(centres undefined)", "IkBa stabilization activation": "inactive"}
{"molecule": "CCOC(=O)c1cnc(-n2nc(C)cc2C)nc1Nc1cccc(C(=O)O)c1", "IkBa stabilization activation": "inactive"}
{"molecule": "COc1ccc(-c2ccc(C(=S)N3CCN(C(C)=O)CC3)o2)cc1", "Potency": "inconclusive: 31.6 µM [rising, single point]"}
{"molecule": "COc1ccc2nc(NC(=O)c3ccc(Br)s3)sc2c1", "IkBa stabilization activation": "inconclusive: 14.8% [signal inhibitor]"}
{"molecule": "COc1cccc(-c2cncnc2NCc2ccccc2OC)c1", "IkBa stabilization activation": "inactive: -0.467% [at 11.4 µM, scaled: untreated 0%, proteasome inhibitor 100%]"}
{"molecule": "COc1cccc(NC(=O)Cn2c(=O)n(CCc3ccccc3)c(=O)c3c4c(sc32)CN(C(C)=O)CC4)c1", "IkBa stabilization activation": "inactive"}
{"molecule": "Cc1cc(C)n(-c2nc3ccccc3nc2N2CCN(c3cccc(C)c3C)CC2)n1", "IkBa stabilization activation": "inconclusive: 10.3% [signal inhibitor]"}
{"molecule": "c1ccc(/N=C2\\N=C(Nc3ccccn3)c3ccccc32)nc1", "IkBa stabilization activation": "inconclusive: 14.6%"}
{"molecule": "O=C(CSc1nc2c([nH]c3ccccc32)c(=O)n1-c1cccc(Cl)c1)N1CCOCC1", "IkBa stabilization activation": "inconclusive: 16.7% [signal activator]", "Potency": "inconclusive: 31.6 µM [rising, single point]"}
{"molecule": "CCC(NC(=O)c1ccccc1NC(=O)c1ccccc1)C(=O)O", "note": "(centres undefined)", "Potency": "inconclusive: 15.8 µM [signal inhibitor, partial curve]"}
{"molecule": "O=C(c1cc(-c2ccc3c(c2)OCO3)on1)N1CCN(c2ccccc2)CC1", "Potency": "inconclusive: 0.1 µM [signal inhibitor, full curve]"}
{"molecule": "CN1CC2=Cc3ccccc3OC23Oc2ccccc2C=C3C1", "Potency": "inconclusive: 3.16 µM [rising, partial curve]"}
{"molecule": "CCCCN(CC)S(=O)(=O)c1ccc(C(=O)Nc2nnc(CSC)o2)cc1", "IkBa stabilization activation": "inactive"}
{"molecule": "O=C1NC(c2cccs2)Nc2sc3c(c21)CCCC3", "note": "(centres undefined)", "IkBa stabilization activation": "inconclusive: 2.93% [signal inhibitor]"}
{"molecule": "C=CC(=O)NC(C)C", "IkBa stabilization activation": "inactive"}
